In all, about 360,000 compounds went through this assay and about 7,500 (2.1%) were called active. Inconclusive means that the source gave no clear call. Such entries were picked first, then a sample of the others. Calls follow the shape of the dose curve; as a rule, active = well fitted cell-killing curve with a large enough effect; inconclusive = small, poorly fitted or top-dose-only effect, or effect the other way, or another doubt; inactive = no such curve, though single readings can be large or run the other way. No potency is given beside an inconclusive call; the fits are too rough.
Assay: qHTS for induction of synthetic lethality in tumor cells producing 2HG: qHTS for the HT-1080-IDH1KD cell line;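 as to activity, negative = toxicity: 0% = DMSO wells and -100% = cell-free medium wells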
Details: HT-1080 IDH1 knockdown viability, ATP luminescence, 48 h; activity, negative = toxicity: at 46.1 µM (top of the series) unless noted
Outline: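 After a 2 h attachment period, IDH1KD HT-1080 cells took pin-transferred compound for 48 h at 37 °C; ATP-based luminescence after 10 min room-temperature reagent incubation reported viability.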
With `O=C(CCn1cnc2ccccc21)N/N=C/c1ccccc1O` the Potency was inconclusive [cytotoxic, partial curve]. In the case of `CCN(CC)S(=O)(=O)c1ccc(C(=O)NNC(=O)c2cccs2)cc1`, the Potency is reported as “inactive”. For `CCn1c(CNC(=O)COc2ccc(C(C)C)cc2)nnc1SCC(=O)Nc1cc(F)ccc1C`, the Potency was inconclusive [cytotoxic, single point]. With `O=C(Nc1ccccc1)c1ccccc1Oc1ccc(C(F)(F)F)cc1[N+](=O)[O-]` the Potency was “inactive”. For `COc1ccc(-c2nnc(Sc3nc4ccccc4o3)c3ccccc23)cc1`, the Potency was inconclusive [cytotoxic, single point]. With `O=C1C=C(c2ccc(Cl)cc2)C(=O)N1Nc1ccccc1` the Potency was active: 18.4 µM. With `O=C(NCCCN1CCCC1=O)C1CCN(S(=O)(=O)c2ccc(Cl)cc2)CC1` the Potency was “inactive”. In the case of `COc1ccc(-c2cc3nc(NCCCN(C)C)n(C)c(=O)c3s2)cc1OC`, the Potency is reported as “inactive”. In the case of `COc1ccc2[nH]c3c(c2c1)CCN1C(=O)C(CC(=O)NC/C=C(\C)CCC=C(C)C)C[C@H](C(=O)N(C(C)C)C(C)C)[C@@]31C` (stereo not given in full), the Potency is reported as inconclusive [cytotoxic, single point]. In the case of `COc1ccc(CCn2c(C)nc3c(c(=O)c4ccccc4n3C)c2=O)cc1`, the Potency is reported as inconclusive [cytotoxic, single point]. In the case of `CC(C)(C)NC(=O)CSc1nc2ccc(Nc3nc(N4CCOCC4)nc(N4CCOCC4)n3)cc2s1`, the Potency is reported as inconclusive [cytotoxic, single point]. In the case of `N#Cc1c(NC(=O)c2cc(C3CC3)on2)sc2c1CCC2`, the Potency is reported as inconclusive [cytotoxic, single point]. In the case of `Cc1ccc(-c2cc3c(nn2)-c2ccccc2C3=O)cc1`, the Potency is reported as inconclusive [cytotoxic, partial curve]. With `CC(=O)Nc1ccc(N2C(=O)c3ccc(C(=O)Nc4nnc(SCc5ccc(F)cc5)s4)cc3C2=O)cc1` the Potency was “inactive”. In the case of `O=C(CSc1nnc(-c2ccc(Cl)cc2)n1-c1ccc(Cl)cc1)N/N=C/c1ccco1`, the Potency is reported as inconclusive [cytotoxic, single point]. For `Cc1ccc(C(=O)NCc2ccco2)cc1S(=O)(=O)Nc1cccc(C)c1C`, the Potency was inconclusive [cytotoxic, single point]. In the case of `N#Cc1c(N)nc(SCc2ccccn2)c(C#N)c1-c1cccs1`, the Potency is reported as inconclusive [cytotoxic, single point]. With `COc1cccc(CNc2nn[nH]n2)c1OC` the Potency was “inactive”. With `CC(=O)Nc1ccc(-c2csc(Nc3ccc(S(N)(=O)=O)cc3)n2)cc1` the Potency was “inactive”. With `O=C(c1ccc(CS(=O)Cc2ccc(Cl)cc2)o1)N1CCN(c2cccc(Cl)c2)CC1` (stereo not given) the Potency was inconclusive [cytotoxic, single point]. With `CCOc1ccc(NC(=O)CSc2ccccc2N)cc1` the Potency was inconclusive [cytotoxic, full curve, poor fit]. With `Cn1c2ccccc2c2cc(C(=O)NNC(=O)CCl)sc21` the Potency was active: 20.6 µM. With `O=C(Nc1ccc(Nc2ccccc2)cc1)c1c(Cl)cccc1Cl` the Potency was inconclusive [cytotoxic, partial curve]. For `C/C(=N\NC(=O)c1nnn(-c2nonc2N)c1CN1CCCCC1)c1ccccc1O`, the Potency was inconclusive [cytotoxic, full curve, poor fit]. In the case of `C=CCOC(=O)C1=C(C)NC(SCC(=O)N(CC)CC)=C(C#N)C1c1ccccc1` (stereo not given), the Potency is reported as inconclusive [cytotoxic, partial curve]. For `COc1cccc(-c2nc(-c3ccccc3)c3ccc(Cl)cc3n2)c1`, the Potency was “inactive”. In the case of `CCOC(=O)NC(Nc1ccc(OC)cc1)(C(F)(F)F)C(F)(F)F`, the Potency is reported as “inactive”. In the case of `CCCOc1ccc(NC(=O)CC2C(=O)N(CC)C(=S)N2CCCN2CCN(Cc3ccccc3)CC2)cc1` (stereo not given), the Potency is reported as active: 16.4 µM. In the case of `COc1ccc(O)c(-c2cc(-c3ccc(F)cc3)n[nH]2)c1`, the Potency is reported as active: 23.1 µM. In the case of `CCN(CC)S(=O)(=O)c1cccc(-c2nnc(SCCOc3ccc(Cl)cc3)o2)c1`, the Potency is reported as inconclusive [cytotoxic, single point]. With `COc1ccc(CCN2C(=S)NC3CC2(C)Oc2ccc([N+](=O)[O-])cc23)cc1OC` (stereo not given) the activity, negative = toxicity was inconclusive: -17.5% [cytotoxic]. For `Cc1cc(C)c(S(=O)(=O)N2CCCCC2CCNC(=O)C(=O)NC2CC2)c(C)c1` (stereo not given), the Potency was inconclusive [cytotoxic, full curve]. For `COc1ccccc1/C=C/CN1CCCC(CO)(Cc2cccc(Cl)c2)C1` (stereo not given), the Potency was active: 16.4 µM. In the case of `COc1ccc(C(=O)N2CCC(C(=O)N3CCN(Cc4ccccc4)CC3)CC2)cc1`, the Potency is reported as “inactive”. For `COc1ccc(C=CC(=O)c2ccc(OCc3ccccc3)c(OC)c2)cc1OC`, the Potency was inconclusive [cytotoxic, single point]. For `N#C/C(=C\c1cccs1)C(=O)c1ccccc1Cl`, the Potency was inconclusive [cytotoxic, single point]. With `N=c1ccn(Cc2c(Cl)cccc2Cl)cc1` the Potency was inconclusive [cytotoxic, full curve]. With `NNC(=O)c1cc(NS(=O)(=O)c2cccs2)cc(NS(=O)(=O)c2cccs2)c1` the Potency was “inactive”. With `CC(=O)C1=CCC(c2ccc(C)cc2)N(S(=O)(=O)c2ccc(Cl)cc2)C1` (stereo not given) the Potency was inconclusive [cytotoxic, single point]. With `Clc1ccc(SCCOCCN2CCc3ccccc3C2)cc1` the Potency was inconclusive [cytotoxic, partial curve]. For `Cc1ccc(-c2nnc3n2N=C(c2ccccc2Br)CS3)cc1`, the Potency was inconclusive [cytotoxic, single point]. With `Cc1cc(Nc2ccc3ccccc3c2)n2ncnc2n1` the Potency was inconclusive [cytotoxic, single point]. With `CC(NNC(=S)N1CCCCCC1)c1ccc2ccccc2n1` (stereo not given) the Potency was inconclusive [cytotoxic, single point]. In the case of `Clc1ccc2c(c1)C1=C(C(c3ccncc3)O2)C(c2ccc(Br)cc2)n2ncnc2N1` (stereo not given), the Potency is reported as inconclusive [cytotoxic, single point]. With `CCOC(=O)[C@H]1[C@H]2COc3ccc(Br)cc3[C@@H]2N2C(=O)c3c(C)cc(C)cc3NC(=O)[C@@]12C` the Potency was “inactive”. With `CCOc1ccc(CCNC(=O)c2cc(=O)[nH]c3ccc(S(=O)(=O)N(CC)CC)cc23)cc1OCC` the Potency was “inactive”. With `O=c1c2ccccc2nc(SCc2cn3ccsc3n2)n1-c1ccc(F)cc1` the Potency was inconclusive [cytotoxic, partial curve]. With `COc1ccc(N2CCN(C(=O)CCC(=O)N3CCOc4ccc(Cl)cc43)CC2)cc1` the Potency was “inactive”. With `CCOc1ccc(NCc2nnc(SCC(=O)Nc3cc(C)on3)n2-c2ccccc2OC)cc1` the Potency was inconclusive [cytotoxic, single point]. With `Cc1ccc(S(=O)(=O)Nc2ccc3c(c2)C(=O)N([C@H](C)CO)C[C@H](C)[C@@H](CN(C)Cc2ccc(-c4ccccc4)cc2)O3)cc1` the Potency was inconclusive [cytotoxic, single point]. In the case of `COC(=O)c1ccc(N=Cc2c(C(F)(F)F)[nH]n(C)c2=O)cc1`, the Potency is reported as inconclusive [cytotoxic, single point]. For `COc1ccc(C(O)c2nccn2Cc2ccccc2)cc1` (stereo not given), the Potency was “inactive”. In the case of `Oc1ccc(Cn2ccnc2)c2cccnc12`, the Potency is reported as inconclusive [cytotoxic, single point]. With `CC(C)Cc1nc(Nc2ccccc2C#N)c2nnn(Cc3ccccc3)c2n1` the Potency was active: 18.4 µM. For `COc1ccc(NC(=O)c2nnn(Cc3cccc(F)c3)c2N)c(OC)c1`, the Potency was inconclusive [cytotoxic, full curve]. In the case of `CNCc1cc(Br)c(OCC(=O)Nc2ccccc2OC)c(OC)c1`, the Potency is reported as inconclusive [cytotoxic, single point]. With `Cc1nc(NC(=O)c2csc3ccccc23)sc1C` the Potency was inconclusive [cytotoxic, single point]. For `Cc1csc(SCC(=O)Nc2ccccc2[N+](=O)[O-])n1`, the Potency was “inactive”. In the case of `O=C1NC(=O)/C(=C\c2cn(CC(=O)N3CCOCC3)c3ccccc23)S1`, the Potency is reported as “inactive”. In the case of `O=C(Nc1cccn(Cc2c(Cl)cccc2Cl)c1=O)c1ccc(Cl)cc1Cl`, the Potency is reported as inconclusive [cytotoxic, single point]. In the case of `CCCCn1nnnc1C(c1ccccc1)N1CCN(c2ccc(C(F)(F)F)cn2)CC1` (stereo not given), the Potency is reported as inconclusive [cytotoxic, single point]. With `COC(=O)c1c(C)n(-c2ccccc2)c2ccc(O)cc12` the Potency was inconclusive [cytotoxic, single point]. With `O=C(COc1ccc(Cl)cc1)Nc1nc(-c2cccs2)cs1` the Potency was “inactive”. For `CCc1cc(/C(Cc2ccccn2)=N\Nc2ccccc2)c(O)cc1O`, the Potency was inconclusive [cytotoxic, partial curve, poor fit]. With `COc1ccccc1NS(=O)(=O)c1ccc(NC(=O)c2ccncc2)cc1` the Potency was inconclusive [cytotoxic, partial curve]. In the case of `N#CC1C(=O)c2ccccc2C1c1ccccc1` (stereo not given), the Potency is reported as active: 11.6 µM. With `Cc1ccc(-c2nnn(CC(=O)N(c3cccc(F)c3)C(C(=O)NC(C)(C)C)c3ccco3)n2)o1` (stereo not given) the Potency was inconclusive [cytotoxic, partial curve]. For `Cc1cccc(S(=O)(=O)NNC(=O)c2sc(C)nc2C)c1`, the Potency was “inactive”. For `Cc1onc(-c2ccccc2)c1C(=O)Nc1cc(C(F)(F)F)ccc1N1CCOCC1`, the Potency was active: 2.91 µM. With `COc1ccc(C=O)cc1COc1ccc([N+](=O)[O-])c(C)c1` the Potency was inconclusive [cytotoxic, single point].
Potency is read from the fitted curve at half-maximal effect; tags tell the direction and shape of the fitted curve.
